The whole screen tested about 150,000 compounds, of which about 540 (0.36%) showed an effect of 50% or more. The list shows a part of the results.
These compounds were tested on Plasmodium falciparum (assay: Primary screen in NF54 nanoGlo assay, in single point, at 2uM, 72h; a lower Z score goes with more inhibition). Details: timepoint 72 hour.
Type: functional, Erythrocyte

SMILES	% Inhibition [%]	Z score
Cc1ccccc1C(=O)N[C@@H]1CCCC[C@H]1NC(=O)C1CCN(C(=O)c2ccc3ccccc3c2)CC1	-4	0.63
COc1ccc([C@@]2(N3CCCC3)Oc3ccccc3C(C#Cc3ccccc3)=C2C)cc1	-3	0.51
CC(NC(=O)N1CCCCC1)(C(F)(F)F)C(F)(F)F	38	-1.36
NC(=O)Cc1ccc(Cl)cc1Cl	-10	1.37
O=C(NCCc1ccccc1)c1cccc(Oc2cc(-c3cccc(F)c3)ncn2)c1	8	-1.04
CCOC1CCN(C(=O)c2ccc(-c3ccco3)nc2C)CC1	-12	1.63
O=C(c1ccnc(-c2ccccc2F)c1)N1CCCCC1	-9	1.58
Cn1ccnc1C(=O)[C@H]1CCCN(C(=O)c2onc3c2CCCC3)C1	-4	0.71
CN(C[C@H]1COc2ccccc2O1)C(=O)c1cn(CC2CCCCC2)nn1	7	-1.05
Cc1cccc(C(=O)Nc2cccc(N3C(=O)CC[C@@H]3C)c2)n1	-16	1.58
CCCN(C[C@H]1CCCO1)C(=O)c1cc(NC(C)=O)cc2nc(-c3cccc(OC)c3)n(CC)c12	0	0.06
O=S(=O)(NCCNS(=O)(=O)c1cccc(F)c1F)c1cccc(F)c1F	7	-1.1
Cc1ccc(=O)n(CC(=O)N2CCCC[C@H]2c2cccc(C)c2C)n1	12	-2.31
CC(C)Nc1nc2nonc2n2nnnc12	31	-3.95
COc1ccc2c(c1)N1CCN(c3ccccc3OC)CC1C(C(=O)NCc1ccccc1F)C2 (centres undefined)	-9	1.15
Cc1cc(=O)c(C(=O)N(CC2CC3C=CC2C3)C(C)C)c[nH]1 (centres undefined)	-12	1.18
COc1cc(CN(C)Cc2cnccn2)ccc1F	-14	1.4
Cc1ccccc1C1=NO[C@@H](CN(Cc2ccccc2)C(=O)NC(C)(C)C)C1	9	-1.24
Cc1ncsc1C(=O)N1CCOC[C@H]1c1ncn(CC(F)(F)F)n1	-12	1.56
Cc1nc(N(C)C)nc(-c2ccc(C(=O)NCc3ccno3)cc2)c1C	-8	1.42
NC(=O)Nc1c(Cl)cccc1Cl	-12	1.71

SMILES	% Inhibition [%]	Z score
Cn1c(C(=O)NCc2ccc(-c3ncon3)cc2)cc2c(Cl)cccc21	-5	0.8
CN(CC(=O)N(C)C1CCC(c2ccccc2)CC1)c1cnccn1 (centres undefined)	35	-5.12
CCOc1ccccc1C(=O)N1CCOC[C@@H]1CC(C)C	-4	0.53
Cc1cccc(Cl)c1C(=O)NC(C1CCNCC1)[C@H]1C[C@H](O)C1 (some centres undefined)	-9	1.88
CCCC(=O)N1c2ncnn2C(c2ccccc2OC)CC1c1ccccc1 (centres undefined)	-6	0.81
O=c1c2ccccc2nc(-c2cccc3ccccc23)n1Cc1cccc(Cl)c1	-8	0.9
CC(=O)c1c(C)nn(CC(=O)N2CCN(CCOc3ccc(Cl)cc3C)CC2)c1C	-1	0.23
CCOC1(c2ccc(OCc3nc(-c4ccccc4)oc3C)cc2)CC(C(=O)O)C1 (centres undefined)	-16	1.66
C[C@@H](CNS(=O)(=O)c1cnn(C2CCOCC2)c1)c1nccs1	-8	0.89
CC1(C)CN(C(=O)NCc2ccccc2)C[C@@H]2CN(C(=O)C3CCCC3)CCN21	2	-0.24
CCOC1CC(NC(=O)c2ccnn2CC(F)F)C12CCOCC2 (centres undefined)	-2	0.21
C[C@H](NCC(=O)Nc1ccnn1C1CCCC1)c1cccs1	-2	0.22
CCC(C(=O)OC)N(C(=O)C1CCOC1)c1ccccc1 (centres undefined)	-3	0.32
CCN(CC)C(=O)c1ccc2c(c1)N(CC(=O)N1CCCCCC1)C(=O)CO2	0	0.02
O=C(Nc1cccc(F)c1)N(CCO)CCOCC(F)(F)F	-6	0.75
Cc1ccc(C)c(OC[C@@H](O)CN2CCC(Cc3nccn3C)CC2)c1C	11	-1.07
CC[C@@H]1Oc2ccc(NC(=O)COc3ccccc3)cc2CN(Cc2ccc(F)cc2)C1=O	3	-0.42
O=C(NCC[C@H]1CCCO1)c1cc2c(s1)CCC2	-8	1.19
COc1ccccc1NC(=O)c1nnn2c1c(=O)[nH]c1cc(F)ccc12	5	-1.07
CC(C)c1nsc(N2CCN(CC(=O)N3CCCC[C@@H]3C)CC2)n1	-11	0.96
Cc1cnn(CC(=O)N2CCC3(CC2)CC(=O)N(Cc2ccc(Cl)cc2)C3)c1	-8	1.01

SMILES	% Inhibition [%]	Z score
Cc1nn(-c2nc(C)c(C)c(=O)[nH]2)c(C)c1CCC(=O)NCc1cccnc1	-11	1.43
C[C@@H](Cn1cccn1)Nc1ccc2cc[nH]c2n1	6	-1.04
N#CC1(c2cccc3ccccc23)CCCCC1	0	-0.03
Cc1cc(C(=O)N2CCC[C@H](N)C2)c(C)n1C(C)C	-9	1.44
COc1ccc(NC(=O)CCc2c(-c3ccc(Cl)cc3)nc3ccc(-c4cc5ccccc5s4)cn23)cc1	0	-0.04
COc1ccc(CCNc2cc(C(C)(C)C)nc3c(-c4ccc(F)cc4)c(C)nn23)cc1OC	11	-1.22
COc1ccccc1N1CCN(C(=O)CNC(=O)c2cn(-c3ccccc3OC)c(=O)c3ccccc23)CC1	1	-0.09
O=C(NCc1ccc(N2CCCC2=O)cc1)c1ccc2c(c1)OCO2	-8	1.21
O=C1CN(c2ncnc3c2ncn3CC(CO)C2CCOC2)CN1CC(F)(F)F (centres undefined)	-2	0.23
Cc1ccc(-n2ncc3[nH]c(=O)ncc32)cc1	7	-0.92
CCc1ccc(NC(=O)c2c(C)oc3ncn(Cc4ccccc4)c(=O)c23)cc1	-7	0.88
CN1CC[C@@]2(CCC1=O)CN(c1nnc(-c3ccccc3)s1)CCN2C	-7	0.95
CC(Cc1ccc(F)cc1)C(=O)N1CCC[C@@H]1C(=O)O (some centres undefined)	4	-0.55
CC(C)Oc1ccc(CN2CC(Cc3nc(-c4ccncc4)no3)C2)cc1	4	-0.58
Cc1nc(CC(=O)NCCc2noc([C@@H]3CCCO3)n2)c(C)s1	5	-0.86
C=CCN1CC(=O)N(CC2CCCN(C)C2c2cccc(Cl)c2)C1=O (centres undefined)	-6	0.84
O=c1[nH]nc(-c2ccccc2)c2cn(-c3ccccc3Cl)nc12	-34	4.02
O=C(NCCN1N=C(c2ccccc2)CCC1=O)c1cc2n(n1)CCNC2	0	0.03
COc1cccc2c1CN(C(=O)[C@@H](OC)C1CCCCC1)C2	2	-0.26
Cc1ccc(NC(=O)C2CCN(S(=O)(=O)c3ccc4c(c3)sc(=O)n4C)CC2)c(C)c1	-12	1.48
Cc1cccc(Oc2nc3ccccc3n3c(=O)n(CC(=O)NCc4ccc(F)cc4)nc23)c1C	-9	1.29

SMILES	% Inhibition [%]	Z score
CCOCC1CCN(C(=O)c2ccc(Oc3ccncc3)cc2)CC1	-1	0.12
N#Cc1ccc(C(=O)N[C@@H]2[C@H]3CCO[C@H]3[C@H]2Cc2ccccc2)cn1	-11	1.14
Cn1nncc1CN1CCC[C@H]1c1ccc(Br)c(F)c1	-7	0.97
O=C1N[C@H]2C[C@@H](C(=O)NC[C@H]3O[C@H](CCOc4ccccc41)CC[C@@H]3O)N(Cc1ccc(Cl)c(F)c1)C2	-7	0.9
COc1ccc(NC(=O)N2CCCCC[C@@H]2CN2CCC(C)CC2)cc1	-1	0.14
Cc1nnc(OC[C@H]2CCCCN2C)s1	-15	2.12
Cc1nccnc1CN1CCC[C@@]1(C)c1ccccc1	-10	1.97
Cc1cnn(CC(=O)N2CCCN(Cc3ccc(F)cc3)[C@H](C(C)C)C2)c1	8	-1.17
O=C(Nc1ccc(-n2ncc3ccccc32)cc1)NC1CCC(O)CC1 (centres undefined)	-7	0.84
COc1ccc2c(c1)c(CN1CCC(C(=O)NCCN3CCCCC3)CC1)cn2C	7	-1.06
Cc1ccc(NC(=O)c2cc(N3CCCC3)ncn2)cc1F	-13	2.28
COc1ccc(-c2cc(C(=O)N(C)C3CCS(=O)(=O)CC3)[nH]n2)cc1	-12	2.18
CC1CCC(NCc2ccc3c(=O)cc[nH]c3c2)C(C)C1 (centres undefined)	-5	0.69
CCOc1cc(N2CCC[C@H](n3cc(CO)nn3)C2)nc(C)n1	0	-0.01
Cc1cc(C)cc(OCc2nc(CN(CCN3CCOCC3)C(=O)C3CCCC3)cs2)c1	-9	1.31
Cc1nc(CNC(=O)NCC2(OCCO)CCOCC2)sc1C	-16	2.02
C=C(C)CNC(=O)c1coc(CN2CCN(c3ncccn3)CC2)n1	14	-1.87
O=C(Nc1ccc(-n2cc(Cl)cn2)cc1)c1ccc(COc2ccc(F)cc2)cc1	5	-0.67
CNC(=O)C1CCN(Cc2ccnc(OC)c2F)CC1	-6	1.18

Source: ChEMBL document CHEMBL4888484, “Replenishing the malaria drug discovery pipeline: Screening and hit evaluation of the MMV Hit Generation Library 1 (HGL1) against asexual blood stage Plasmodium falciparum ,using a nano luciferase reporter read-out” (2022)
